Results as given in PubChem BioAssay (NCATS).
This list was built around the results that the source calls inconclusive (neither active nor inactive); the mix of calls is not that of the screen. For part of these data: Potencies beside an inconclusive call are fits to weak or partial responses and may not hold up. Active and inactive are the calls of the source. The call rests on the fitted dose curve; in most records, active means well fitted curve in the direction sought with a large enough effect; inconclusive means small, poorly fitted or top-dose-only effect, or another doubt; inactive means no such curve, though single readings can be large; an effect the other way counts as inactive or inconclusive.

Columns and labels:
[1] = UWB1.289 Cancer Cell Toxicity qHTS against the NCATS CANVASS Library (AID 1347347); further: nearly all actives have a fitted effect of over 60% in size; further: potency means the concentration at half of the fitted maximal effect
Procedure, shortened: (§1)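 Toxicity is measured over 72 h of compound exposure at 37 degrees C under 5% CO2. Each well holds 1000 cells, pre-incubated for 4 hours before dosing across an 11-point range. CellTiter-Glo luminescence gives viability.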

[2] = OV-SAHO Cancer Cell Toxicity qHTS against the NCATS CANVASS Library (AID 1347348); conditions: OV-SAHO viability, CellTiter-Glo luminescence, 72 h; activity change, negative = cytotoxicity: at 38.3 µM (top of the series); further: nearly all actives have a fitted effect of over 55% in size
Procedure, shortened: as §1

[3] = COV-362 Cancer Cell Toxicity qHTS against the NCATS CANVASS Library (AID 1347352)
Procedure, shortened: (§2)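 Luminescent ATP read-out (CellTiter-Glo, 15min at room temperature) measures survival after cells face an 11-point compound series for 72 hours at 37 degrees C/5% CO2.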

[4] = A2780 Cisplatin Sensitive Ovarian Cancer Cell Toxicity qHTS against the NCATS CANVASS Library (AID 1347353); further: potency means the concentration at half of the fitted maximal effect; nearly all actives have a fitted effect of over 60% in size
Procedure, shortened: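 Luminescent ATP content (ATPLite, 10 min at room temperature) served as the read-out after cells had been exposed to compounds for 72 hours at 37 °C. Dosing followed an 11-point concentration series.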

[5] = biological target: Luciferin 4-monooxygenase (Photinus pyralis) (UniProt P08659); assay: Firefly luciferase counterscreen qHTS: Assay Interference Panel against the NCATS CANVASS Library (AID 1347363); further: potency means the concentration at half of the fitted maximal effect
Sequence of UniProt P08659 (P08659 whole entry, looked up): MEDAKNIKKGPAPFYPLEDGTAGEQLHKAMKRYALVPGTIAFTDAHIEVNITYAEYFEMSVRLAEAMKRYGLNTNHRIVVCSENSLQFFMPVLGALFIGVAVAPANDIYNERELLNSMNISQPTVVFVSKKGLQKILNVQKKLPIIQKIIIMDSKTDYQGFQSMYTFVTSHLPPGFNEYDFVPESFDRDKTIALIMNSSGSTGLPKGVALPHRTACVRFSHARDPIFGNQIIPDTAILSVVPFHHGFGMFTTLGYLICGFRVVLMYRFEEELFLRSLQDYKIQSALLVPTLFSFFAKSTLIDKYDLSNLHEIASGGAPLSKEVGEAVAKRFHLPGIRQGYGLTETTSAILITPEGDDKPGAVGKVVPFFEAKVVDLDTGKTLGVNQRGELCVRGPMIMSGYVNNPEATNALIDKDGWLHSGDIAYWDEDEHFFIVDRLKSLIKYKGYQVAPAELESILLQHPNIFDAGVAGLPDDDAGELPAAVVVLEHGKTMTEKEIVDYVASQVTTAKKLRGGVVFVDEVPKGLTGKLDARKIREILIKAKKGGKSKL
Procedure, shortened: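 Purified P. pyralis luciferase (0.04 ug/mL, 4x reagent) added to Tris-acetate buffer with 0.013 mM D-luciferin, 0.013 mM ATP and 13.3 mM Mg-acetate; compounds preincubated 15 min, then luminescence read after 5 min, RT.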

[6] = KB-8-5-11 Cancer Cell Toxicity qHTS against the NCATS CANVASS Library (AID 1347364); conditions: activity change, negative = toxicity: at 46.1 µM (top of the series); further: nearly all actives have a fitted effect of over 75% in size; further: potency means the concentration at half of the fitted maximal effect
Procedure, shortened: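 Plate 500 KB-8-5-11 cells per well in DMEM + 10% FBS, add compounds by pin transfer, incubate 72 hr at 37C. Add CellTiter-Glo, wait 10 minutes at room temperature, read luminescence.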

[7] = KB-3-1 Cancer Cell Toxicity qHTS against the NCATS CANVASS Library (AID 1347366); further: potency means the concentration at half of the fitted maximal effect; nearly all actives have a fitted effect of over 75% in size
Procedure, shortened: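 Seed KB-3-1 cells at 500/well in DMEM with 10% FBS, add compounds, incubate 72 hr at 37C and 5% CO2, then add CellTiter-Glo and read luminescence after 10 minutes.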

[8] = qHTS for ATAD5 Agonist screened against the NCATS CANVASS Library (AID 1347367);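 further: luciferase reporter driven by ATAD5 which rises upon DNA damage; potency means the concentration at half of the fitted maximal effect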
Procedure, shortened: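 Step one plated reporter cells and let them acclimate 5hr. Step two pinned compounds with MMS as positive and 0.46% DMSO as negative control. After 16hr incubation, fluorescence viability then luminescence were read.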

[9] = biological target: Nuclear receptor subfamily 1 group I member 3 (Homo sapiens) (UniProt Q14994); assay: qHTS for Constitutive Androstane Receptor (CAR) Agonist screened against the NCATS CANVASS Library (AID 1347373);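 further: every well also contained 1.5 µM PK11195 alongside the test compound; potency means the concentration at half of the fitted maximal effect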
Sequence of UniProt Q14994 (Q14994 whole entry, looked up): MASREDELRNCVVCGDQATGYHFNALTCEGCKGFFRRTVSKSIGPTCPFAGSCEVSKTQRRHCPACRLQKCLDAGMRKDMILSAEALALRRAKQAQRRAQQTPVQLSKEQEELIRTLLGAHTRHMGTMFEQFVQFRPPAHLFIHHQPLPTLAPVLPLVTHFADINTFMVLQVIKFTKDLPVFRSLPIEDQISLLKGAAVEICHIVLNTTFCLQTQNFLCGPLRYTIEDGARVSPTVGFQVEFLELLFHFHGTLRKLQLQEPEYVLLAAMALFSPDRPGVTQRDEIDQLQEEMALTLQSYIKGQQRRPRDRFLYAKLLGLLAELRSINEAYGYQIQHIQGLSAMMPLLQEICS
Procedure, shortened: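 HepG2-hCAR-CYP2B6 cells, 2500/well, attached 4hr; cpd + PK11195 1.5uM final; 24hr 37C 5% CO2. CellTiter-Fluor viability read, then ONE-Glo luminescence for CAR activation.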

[10] = qHTS assay for small molecule disruptors of mitochondrial membrane potential screened against the NCATS CANVASS Library (AID 1347389); further: potency means the concentration at half of the fitted maximal effect; nearly all actives have a fitted effect of over 60% in size
Procedure, shortened: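 HepG2, 2,000 cells/well, attached overnight; compound 1 hr, 37C, 5% CO2; Mito-MPS dye 30 min, 37C; fluorescence 535 nm (monomer) and 590 nm (aggregate); decreased 590/535 ratio = depolarization.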

[11] = qHTS for inhibitors of ER calcium dysfunction: SERCaMP assay screened against the NCATS CANVASS Library (AID 1347393); conditions: SH-SY5Y GLuc-SERCaMP secretion, thapsigargin, luminescence; series mostly up to 76.6 µM; further: nearly all actives have a fitted effect of over 40% in size; further: potency means the concentration at half of the fitted maximal effect
Procedure, shortened: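 SH-SY5Y GLuc-SERCaMP, 1000 cells/well, 4 h attach; cpd 16 h, 37C/5% CO2; thapsigargin (added as 6x 600 nM) 4 h; coelenterazine; luminescence. Reduced reporter release = ER Ca stabilization.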

[12] = Vero-766 cells viability qHTS against the NCATS CANVASS Library: Counterscreen for Zika virus inhibition assay (AID 1347394); conditions: Vero 766 viability, CellTiter-Glo luminescence, 72 h; activity change, negative = cytotoxic: at 46.1 µM (top of the series); further: potency means the concentration at half of the fitted maximal effect; nearly all actives have a fitted effect of over 60% in size
Procedure, shortened: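 This cytotoxicity counterscreen uses African green monkey Vero 766 cells in the absence of Zika virus. Compounds are incubated with cells for 72 h, and ATP-based luminescence reports viability.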

[13] = qHTS for inhibitors of Wild type Zika virus screened against the NCATS CANVASS Library (AID 1347396); further: potency means the concentration at half of the fitted maximal effect
Procedure, shortened: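 Vero 766 (African green monkey) cells, 1000 per well, attached overnight, then compounds were added in an 11-point series before wild-type Zika virus infection. After 72 h at 37C, cell viability was read as CellTiter Glo luminescence.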

[14] = HPAF-II Cancer Cell Toxicity qHTS against the NCATS CANVASS Library (AID 1347346); further: nearly all actives have a fitted effect of over 55% in size; further: potency means the concentration at half of the fitted maximal effect
Procedure, shortened: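 Luminescence from CellTiter-Glo, added after 72 h compound exposure and a 15 min room-temperature incubation, served as the viability readout. HPAF-II cells (1000/well) received an 11-point concentration series.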

[15] = Panc-1005 Cancer Cell Toxicity qHTS against the NCATS CANVASS Library (AID 1347349); further: nearly all actives have a fitted effect of over 60% in size; further: potency means the concentration at half of the fitted maximal effect
Procedure, shortened: as §1

[16] = MCF7 Cancer Cell Toxicity qHTS against the NCATS CANVASS Library (AID 1347369); conditions: activity change, negative = cytotoxicity: at 46 µM (top of the series)
Procedure, shortened: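 Cytotoxicity is measured by ATP content: MCF7 cells at 500 per well receive an 11-point compound series and, after 72 hr at 37C, are lysed with CellTiterGlo for luminescence.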

[17] = qHTS for activators of Nrf2/ARE signaling pathway screened against the NCATS CANVASS Library (AID 1347391); further: nearly all actives have a fitted effect of over 60% in size
Procedure, shortened: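 Plate ARE-bla HepG2 cells at 2000/well and let them settle 5 h. Pin-transfer compounds in DMSO, incubate 16 h at 37C. Load CCF4 for 2 h at room temperature and read blue/green fluorescence.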

[18] = Redox Reaction Profiling qHTS: Assay Interference Panel against the NCATS CANVASS Library (AID 1347401); further: potency means the concentration at half of the fitted maximal effect
Procedure, shortened: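 Compounds in 11-point series incubated with 5 uM resazurin and 200 uM DTT in 50 mM HEPES pH 7.3, 50 mM NaCl. Resorufin fluorescence (Ex 525/Em 598) read before and after 15 min in the dark.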

[19] = SDT Cancer Cell Toxicity qHTS against the NCATS CANVASS Library (AID 1347365)
Procedure, shortened: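 qHTS, SDT dog glioma line, 500 cells/well; cpds 11 pts; 72 hr, 37C, 5% CO2; CellTiterGlo ATP luminescence.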

[20] = qHTS for Hypoxia signaling pathway (HIF-1) agonists against the NCATS CANVASS Library (AID 1347375)
Procedure, shortened: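 ME-180 HRE-bla reporter cells; 2,000/well, 0.5% dialyzed FBS; cpd added after 5 h, 17 h 37C/5% CO2; CCF4-AM 2 h RT; FRET 460/530 nm; CellTiter-Glo viability same wells, 30 min.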

[21] = UWB1.289-WTBRCA1 Cancer Cell Toxicity qHTS against the NCATS CANVASS Library (AID 1347354)
Procedure, shortened: as §2

[22] = HEK293 18hr Apoptosis Induction qHTS against the NCATS CANVASS Library (AID 1347357)
Procedure, shortened: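 Luminescent caspase-3/7 signal is measured in HEK293 cells exposed for 18 hours to an 11-point concentration series; doxorubicin serves as the plate control.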

[23] = G06 Cancer Cell Toxicity qHTS against the NCATS CANVASS Library (AID 1347368); further: nearly all actives have a fitted effect of over 60% in size
Procedure, shortened: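 Dog G06 glioma line, 500 cells/well; cpds pin-transferred, 11-pt; 72 hr, 37C/5% CO2; CellTiterGlo luminescence (ATP) endpoint.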

[24] = J3T Cancer Cell Toxicity qHTS against the NCATS CANVASS Library (AID 1347371);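 further: J3T is a canine glioma cancer cell line seeded at 500 cells per well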
Procedure, shortened: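 Cells plated at 500 per well, compounds pin-transferred, plates incubated 72 hr at 37C, then CellTiterGlo added and luminescence read to measure ATP content.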

[25] = qHTS for Hypoxia signaling pathway (HIF-1) antagonists against the NCATS CANVASS Library (AID 1347374)
Procedure, shortened: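 HRE-bla ME-180 cells in medium with 0.5% dialyzed FBS received compounds (11-point series) plus CoCl2 (60 uM addition stock) for 17 hrs at 37C. Beta-lactamase activity read with CCF4 (405 nm ex, 460/530 nm em); CellTiter-Glo viability measured in same wells.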

[26] = qHTS for Antimalaria activity screened against the NCATS CANVASS Library (AID 1347380); further: potency means the concentration at half of the fitted maximal effect; nearly all actives have a fitted effect of over 40% in size
Procedure, shortened: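 Dd2 strain, infected erythrocytes 2.5% Hct final / 0.3% parasitemia. 11-pt qHTS titration, 72 h, 37C, 5% O2, 5% CO2. Lysis buffer + SYBR Green, 18 h, fluorescence 485/535 nm.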

Measured: Potency
Tags describe the fitted curve by direction and shape.

COc1c(O)cc2oc(-c3ccccc3)cc(=O)c2c1O
active: [4] 20.9 µM | [5] 544 nM | [11] 34.3 µM
inactive: [2] | [3]
inconclusive: [1] 11.8 µM [cytotoxic, partial curve] | [6] 37.2 µM [cytotoxic, single point] | [7] 26.4 µM [cytotoxic, partial curve, poor fit] | [8] 4.17 µM [activator, full curve] | [9] 20.9 µM [activator, partial curve] | [10] 11.7 µM [inhibitor, partial curve] | [12] 26.3 µM [cytotoxic, single point] | [13] 36.9 µM [inhibitor, single point]

C/C=C/C=C/C1(O)C2C=C3C(=O)CC45C(=O)C(O)=C(C)C(=O)C4C1C1(C(=O)C(O)=C(C)C(=O)C351)C2C (configuration not stated)
inactive: [14] | [1] | [15] | [16] | [17]
inconclusive: [18] 27.1 µM [activator, single point]

C=CC(C)(C)C(=O)[C@@H](C)[C@@H]1CC[C@](C)(C=C)O1
inactive: [14] | [6] | [19] | [20] | [11]
inconclusive: [1] 5.29 µM [cytotoxic, partial curve] | [4] 29.6 µM [cytotoxic, single point] | [18] 1.21 µM [activator, full curve, poor fit]

CCCCCCCCCCCCCCCC(=O)OC/C=C(\C)CCCC(C)CC(C)C(C)C (configuration not stated)
active: [14] 298 nM
inconclusive: [15] 7.49 µM [cytotoxic, single point]
inactive: [3] | [21] | [22] | [6] | [23] | [16] | [17]

C[C@@H]1O[C@H](c2c(O)cc(O)c3c(=O)cc(-c4ccc(O)cc4)oc23)[C@H](O)[C@H](O)[C@H]1O
inconclusive: [26] 6.7 nM [cytotoxic, full curve, poor fit]
inactive: [1] | [24] | [25] | [17] | [11]
